Ends that are not written are not given here.
What was measured:
[1] = target: hKv1.2 (human (only by the printed prefix h)) (UniProt P16389)
[2] = target: hKv3.2 (human (only by the printed prefix h)) (UniProt Q96PR1)
[3] = target: hIK1 (human (only by the printed prefix h)) (UniProt O15554)
[4] = target: mKv1.1 (mouse (only by the printed prefix m)) (UniProt P16388)
[5] = target: mKv1.3 (mouse (only by the printed prefix m)) (UniProt P16390)
mKv1.1 = mKv1.1 (mouse (only by the printed prefix m), UniProt P16388); assay: cell-based or functional assay
hKv1.2 = hKv1.2 (human (only by the printed prefix h), UniProt P16389); assay: cell-based or functional assay
mKv1.3 = mKv1.3 (mouse (only by the printed prefix m), UniProt P16390); assay: cell-based or functional assay
hKv3.2 = target: T1, hKv3.2 (human (only by the printed prefix h), UniProt Q96PR1); assay: cell-based or functional assay
T1 sequence: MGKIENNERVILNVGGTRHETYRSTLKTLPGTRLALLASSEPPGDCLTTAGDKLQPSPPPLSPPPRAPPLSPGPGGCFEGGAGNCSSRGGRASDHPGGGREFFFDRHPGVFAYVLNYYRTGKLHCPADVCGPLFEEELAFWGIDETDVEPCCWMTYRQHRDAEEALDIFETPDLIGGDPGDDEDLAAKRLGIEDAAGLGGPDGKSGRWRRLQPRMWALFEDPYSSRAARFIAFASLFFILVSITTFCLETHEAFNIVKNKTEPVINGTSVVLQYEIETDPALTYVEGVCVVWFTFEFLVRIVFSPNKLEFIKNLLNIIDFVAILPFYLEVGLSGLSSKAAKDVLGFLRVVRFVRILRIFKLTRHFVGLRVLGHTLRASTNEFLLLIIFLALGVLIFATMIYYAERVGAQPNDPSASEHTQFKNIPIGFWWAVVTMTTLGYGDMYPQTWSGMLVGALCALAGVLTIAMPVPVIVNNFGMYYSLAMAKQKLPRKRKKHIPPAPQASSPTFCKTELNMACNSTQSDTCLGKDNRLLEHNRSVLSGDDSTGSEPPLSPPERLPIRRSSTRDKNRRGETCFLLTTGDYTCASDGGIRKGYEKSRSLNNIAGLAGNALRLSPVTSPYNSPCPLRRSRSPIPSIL

hIK1 = hIK1 (human (only by the printed prefix h), UniProt O15554); assay: cell-based or functional assay

Row | Molecule | ID50 [1] [nM] | ID50 [2] [nM] | ID50 [3] [nM] | ID50 [4] [nM] | ID50 [5] [nM] | ID50 (mKv1.1) [nM] | ID50 (hKv1.2) [nM] | ID50 (mKv1.3) [nM] | ID50 (hKv3.2) [nM] | ID50 (hIK1) [nM]
1 | [Δ^36-38]-AOsK1 (peptide) | > 1000 | > 1000 | > 1000 | 366 | 1.85 |  |  |  |  | 
2 | [Y^36]-AOsK1 (peptide) | 232 |  | 885 | 34.4 | 0.122 |  |  |  |  | 
3 | Ac-GVIINVKCKISKQCLKPCRDAGMRFGKCMNGKCHCTPK (ends and bridges not checked) [Ac-[K^12,R^19]-AOsK1] |  |  |  |  |  | 2.76 | 101 | 0.09 | 1500 | 
4 | GVIINVKCKISRQCLKPCKDAGMRFGKCMNRKCHCTPK (ends and bridges not checked; cysteine pairing not given here) [[R^31]-AOsK1] |  |  |  |  |  | 0.28 | 0.43 | 0.045 | 220 | 
5 | GVIINVKCKISPQCLKPCKDAGMRFGKCMNGKCHCTPK (ends and bridges not checked; cysteine pairing not given here) [[P^12]-AOsK1] |  |  |  |  |  | 3.18 | 196 | 0.059 |  | 2600
6 | GVIINVKCKISRQCLKPCKDAGMRNGKCMNGKCHCTPK (ends and bridges not checked; cysteine pairing not given here) [[N^25]-AOsK1] |  |  |  |  |  | 791 | 212 | 5.4 | > 1000 | 
